In PubChem BioAssay AID1508642 (National Center for Advancing Translational Sciences (NCATS), 2021):
The campaign covered roughly 43,000 compounds. About 200 (0.47%) were called active. Not shown: some 12% with an inconclusive outcome. The call rests on the fitted dose curve; in most records, active means well fitted cell-killing curve with a large enough effect; inconclusive means small, poorly fitted or top-dose-only effect, or effect the other way; inactive means flat fitted curve, though single readings scatter. Some of the results follow.

Test: Cell viability qHTS assay in S16 Pmp22-F2sN cells; further: nearly all actives have a fitted effect of over 65% in size
Details: S16 Pmp22-F2sN Schwann cells (luciferase reporters placed in the Pmp22 gene) viability, CellTiter-Glo, 24 h; series mostly up to 57.5 µM; activity change, negative = cytotoxicity: at the top concentration
Outline: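 Seed 500-1,000 S16 Pmp22-F2sN cells per well in phenol-red-free DMEM with 10% heat-inactivated FBS; pin-add 23 nL compound; incubate 24 h at 37C; add CellTiter-Glo, wait 15 min protected from light; read luminescence.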
On the % scale 0 is the no-effect control and ±100 the full control effect.

Compound | activity change, negative = cytotoxicity
CCOc1ccccc1NC(=O)c1sc(-n2nc(C)c(CCC(C)C)c2C)nc1C | inactive: -11.9%
Cc1ccc(Cl)cc1N1CCN(C(=O)c2ccc3c(c2)N(Cc2ccccc2F)C(=O)c2ccccc2S3(=O)=O)CC1 | inactive: 15%
Cc1nc2c(C(=O)N(C)Cc3ccccc3)c[nH]n2c(=O)c1Cc1ccc(Cl)cc1 | inactive: 5.56%
O=C(Nc1cccc(Cl)c1)Nc1ccccc1OCc1cc(=O)n2ccccc2n1 | inactive: 12.1%
CCC1CCCCN1CCCNC(=O)CN1C(=O)CSc2ccc(S(=O)(=O)N3CCC(C)CC3)cc21 (configuration not stated) | inactive: -27.4%
Cc1cc(C)c2oc(-c3cccc(NC(=O)c4ccco4)c3)nc2c1 | inactive: 4.28%
COCCCNC(=O)CCC(=O)N1Cc2ccccc2Oc2ncccc21 | inactive: -7.22%
Cc1cc2c(c3oc(=O)c4ccccc4c13)CN(Cc1ccc(F)cc1)CO2 | inactive: 0.432%
Cc1ccc(N2CCN(C(=O)CCc3c(C)nc4c(c3C)c(=O)n(C)c(=O)n4C)CC2)c(C)c1 | inactive: 11.7%
O=C(CCn1cnc2ccccc2c1=O)NCc1ccccc1 | inactive: 1.3%
O=S(=O)(c1ccc2[nH]c3c(c2c1)CCCCC3)N1CCN(c2ccccc2)CC1 | inactive: -7.48%
COc1cccc(CNC(=O)c2cc(-c3cccc(OC)c3)n[nH]2)c1 | inactive: -16.6%
Cc1cccc(C)c1NC(=O)c1oc2c(c1C)-c1nn(Cc3ccccc3)cc1CC2 | inactive: -14.2%
CCCSCCCNC(=O)CN1C(=O)COc2ccc(S(=O)(=O)N3CCC(C)CC3)cc21 | inactive: 8.81%
CN1C(=O)Cc2cc(S(=O)(=O)CCC(=O)Nc3ccccc3)ccc21 | inactive: -7.26%
CCN(CC)CCCNC(=O)Cn1nc(N2CCN(c3ccccc3OC)CC2)ccc1=O | inactive: 3.25%
COc1cc(OC)c(N(C)C(=O)c2nn(C)c3c2CSc2ccccc2-3)cc1Cl | inactive: 5.91%
CC(=O)C1=C(c2ccc(Cl)c(Cl)c2)N(C(C)=O)n2c(C)nnc2S1 | inactive: -10.8%
O=C(Nc1ccccc1Br)N1CCN2CCCCC2C1 (configuration not stated) | inactive: 7.99%
Cc1ccc(S(=O)(=O)Nc2ccc3c(c2)c(C(=O)OC(C)C)c(C)n3S(=O)(=O)c2ccc(C)cc2)cc1 | inactive: 0.736%
COc1ccc(S(=O)(=O)NCCc2cn3ccsc3n2)cc1 | inactive: 18%
CC(=O)c1ccc(NC(=O)c2ccc(CN3C(=O)CCn4nc(C)cc43)cc2)cc1 | inactive: -0.163%
O=S(=O)(Nc1ccc(Br)cc1)c1ccc2nc(-c3ccccc3)[nH]c2c1 | inactive: -29.6%
Cc1ccc(CCNC(=O)CN2CCN(Cc3ccc(Cl)cc3)C2=O)cc1 | inactive: 10.2%
COc1ccc(CCNC(=O)Cn2ccc3cc(S(=O)(=O)N4CCCCC4)ccc32)cc1OC | inactive: -3.64%
COC(=O)c1ccccc1NC(=O)c1cc(=O)c2ccc(C)c(C)c2o1 | inactive: -28.8%
Cc1nn2c(=O)cc(COC(=O)c3ccc(F)cc3)nc2s1 | inactive: -3.6%
